The results in this text go back to the supplement of paper PMC11417369.

The other results are listed elsewhere or left out.

The experiment has as its system PF3D7_0420300 AP2 domain 1 (GST-tagged). Nature of the experiment: gcPBM binding intensity (ln(normalized median fluorescence intensity)); higher = stronger DNA binding. An outline of the steps: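 Probes on an Agilent 4 × 180k array were primer-extended, double-stranded and 36 bp long, taken from intergenic genomic regions, with negative controls added. GST-tagged P. falciparum DNA-binding domains from E. coli, about 25 μg on average, were applied to the array for 1 h in 1× PBS containing 1% milk, 0.2 mg/ml BSA, 0.5% salmon testes DNA and 0.03% Triton X-100. Binding intensity, obtained after Alexa488 anti-GST antibody detection and a 488 nm scan, is the highest Masliner-normalised natural-log median intensity across replicate spots of either probe orientation.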
For the sequence “TTTTTTTTTTGAAGTGCATGTTACGATGAAAAAAAA [TGCATGCA_site64]”, the “gcPBM binding intensity (ln)” value came out at 8.82.
As to “TTTTTTTTTAAATGTTGTACATTATATTTGTGTATA [XGTACX_site8354]”, the “gcPBM binding intensity (ln)” value amounted to 9.21.
For “CTAAATAACTTAAGGTGTACGTTTCCAATAAAAAAA [XGTACX_site1742]”, the “gcPBM binding intensity (ln)” value worked out at 9.02.
The value for “ACATATAAAATGATGCGTACATATTTGATCATATAC [XGTACX_site153]” was 9.28; that for “CACGCACGCAGACACACACACACACGCACATATATA [CACACA_site6303]” was 10.3; that for ACAACAATTCACTTGATGCACTAACCAAAAAAATAA was 9.11.
As to “AAAAAAATAATCATCACACACGGAGAATGTCCAATA [CACACA_site5305]”, the “gcPBM binding intensity (ln)” value was determined as 9.6.
The value for “ATTAAAATATAAGTCACACATATATATATATATATA [CACACA_site6145]” was 9.08; that for “TATTTTTTTTTATTTTTTTTTATTTTGTTTTTTTAT [TGCATGCA_negctrl_site315]” was 9.34; that for “ATATATTTTCCTTCAAGTACACATATAAATGTGTAT [XGTACX_site6633]” was 9.28.
In the case of “ACATATATTTTTTTTTGTACATATAAATATATATAT [XGTACX_site6491]” it was 9.32; in that of “AATATAATAATATTTTGTACATATCCTATGTATGAG [XGTACX_site8601]”, 9.21.
With “AACGTAAAACATATCTATCAAAATAAATCATTAATC [TGCATGCA_negctrl_site68]”, the “gcPBM binding intensity (ln)” value was 9.33.
In the case of “AATGGAAATTTTTCTTGTACACATATATGACATGTT [XGTACX_site1691]” it was 9.19; in that of “TTTTTTTTTACTGCATGTACTTGATGTAAATAAATT [XGTACX_site3045]”, 9.2; in that of “AATATGACGTAGTGGTGTACACACATGGTACCTTTA [XGTACX_site3147]”, 9.63.
In the case of “TATAGAATAATCTATAAACACACAAACACAACAAAA [CACACA_site9374]” it was 9.7; in that of “TTAGAACTATTTTATACATGCAGTTATTTAATACTT [TGCATGCA_site1039]”, 9.17.
Regarding “TTATAAATATAATTTTGTACATATATATATATATAC [XGTACX_site5064]”, the “gcPBM binding intensity (ln)” value was determined as 9.13.
In the case of “CACATATAAATATTAACACACATAATGAGTTATATA [CACACA_site7316]”, the “gcPBM binding intensity (ln)” value is 9.33.
In the case of “AAGAAAAAAAAAAAAAGTACATGCAATATGGATCTT [XGTACX_site3106]” it was 9.62.
The value for “TTATACCATATTTATAGTACGTACAAATAAATCAAT [XGTACX_site4975]” was 9.24.
The value for “AAACAACATATATTAATATGTACATATATATAGATA [GTGCAC_negctrl_site229]” was 9.4; that for “AATAATTGTTAAAGCTGTACAATACTTATATAAGAA [XGTACX_site5729]” was 9.24; that for “TTTTTATTGTTATAGTTATAATATATTATTTGATTA [XGTACX_negctrl_site27]” was 9.26.
As for “TTTTTTTTTTTTGTAACACACAATAATATAACATTA [CACACA_site3411]”, the “gcPBM binding intensity (ln)” value came to 9.23.
In the case of “AATGTTTATTAACATTGTACTTATAATATGTCACAA [XGTACX_site2974]” it was 9.01; in that of “AATAATAAAGATCAATGTACATAATAAAAAAAAAAA [XGTACX_site2692]”, 9.34.
For “TATCATGGGTGTATTTCACACACGGATAATCATTTA [CACACA_site8211]”, the “gcPBM binding intensity (ln)” value was found to be 9.31.
The value for “AAATAATGGTTAGCTACACACAAAGCATTTTTTGAA [CACACA_site1016]” was 9.5.
The value for “TTTTAAAAAGATCATTAAAAAAAAAAAAAGAACAAA [CACACA_negctrl_site528]” was 9.11.
Take “ATAATATAACAATACGCACACGTATACAAAAAAAAA [CACACA_site5703]”: the “gcPBM binding intensity (ln)” value was determined as 9.46.
The value for “AAAATACAAACAAGTGGTACTGTTTATAAATGGTTG [XGTACX_site1503]” was 9.36.
As for “TGTCTTGTAAATTATTGTACTATTTAAAGTATACAA [XGTACX_site7864]”, the “gcPBM binding intensity (ln)” value worked out at 9.05.
In the case of “TTGTATATATTTATATGTACATATATTACTTTTGCT [XGTACX_site2449]” it was 9.17; in that of “TATCCTAACTTTAGATGTACACAAATAAAAAAAAAA [XGTACX_site4491]”, 8.89; in that of “CCATATAAAATATAAAAACACACGTATATATACATA [CACACA_site1511]”, 9.54.
Turning to “TGTACATATATATAGATATATATAGATATATATATA [CACACA_negctrl_site1678]”, the “gcPBM binding intensity (ln)” value came to 9.11.
In the case of “ACAAAATGTAGAAAATGTACAAAATTAACAAAAGAA [XGTACX_site5019]” it was 9.59.
The value for “ATTCAATCTTTTAATACACACAATTTATTTCAAAAC [CACACA_site835]” was 9.34; that for “GTGAAATATGCAAACACACACGAGAAAAATGTATAT [CACACA_site7488]” was 9.74; that for “TTTTTGCCATATTACACACACACATGTAAACCCCCT [CACACA_site1647]” was 10.1.
For “CAAAACAAAACGTATGCACACAATTAATATATTAAA [CACACA_site3405]”, the “gcPBM binding intensity (ln)” value came out at 9.53.
The value for “TATTTTTTTCTTACATACTAATTTGGTACTCACATA [TGCATGCA_negctrl_site81]” was 9.23; that for “AAATAAATCTTATGCACACAAATAATTAATTAAACA [CACACA_site1693]” was 9.43; that for “AGAGTTCTCATATGCACACAAAAAACTTTCATTTAT [CACACA_site45]” was 9.3.
For the sequence “TAAATAAGCACATACACACATACATACATACATAAA [CACACA_site4017]”, the “gcPBM binding intensity (ln)” value was 9.87.
The value for “AACCCCGTGGAAATATGTACATATAAATATATAAAT [XGTACX_site2094]” was 9.27; that for “AATATCCACATTAGGAGTACACAGCTAACTGTTTGA [XGTACX_site3357]” was 9.21.
In the case of “TTGATTACACTGAAGTGTACATATATATATATATAT [XGTACX_site3532]” it was 9.35; in that of “AAATAATAAAAAAAATGTACACGTAAATATTATATT [XGTACX_site8125]”, 9.51; in that of “TTTTATATAAAATCGTGTACATACCATTTCCTATTA [XGTACX_site5159]”, 9.28.
Take “AAAAAAAAAAGAAACACACACATTTGTATATAATAT [CACACA_site2078]”: the “gcPBM binding intensity (ln)” value is 9.93.
The value for “CATATAAAAATGTGCACACACACACCCATATATATT [CACACA_site1526]” was 10.2.
As to “AAAATTAATAAATAAACACACATATATATATATATA [CACACA_site2598]”, the “gcPBM binding intensity (ln)” value worked out at 9.31.
In the case of “TTAAAAAAATATAATACACACCAAAAATATGCACAT [CACACA_site5209]” it was 9.8.
The value for TAATAATTTATAATAGTGCATTTGATTTTAAAAATA was 8.83; that for “TTTTTATGGTAAATAAAAATATCTCCCTCCTTAATT [CACACA_negctrl_site1352]” was 9.04.
The value for “ATTTACATAAATTGCATATATCGATGTAAATAAATA [CACACA_negctrl_site1150]” was 9.1.
As for “TCTTTTTAAACTAATAGTACATATATATTAATAAAT [XGTACX_site4217]”, the “gcPBM binding intensity (ln)” value worked out at 8.99.
For “ATATATATATATATATGTACATATATTTATTTATTG [XGTACX_site6267]”, the “gcPBM binding intensity (ln)” value is 9.13.
In the case of “CATTTATTTTTGTTCTGTACATAAAGATGAACAAAA [XGTACX_site6797]” it was 8.81; in that of “AAAATAAAATATTTCTGTACTTATAACTATTCTATA [XGTACX_site8007]”, 9.14.
The value for “ATAAAATGATAAATTTGTACACAAAAAAAAAAAAAA [XGTACX_site964]” was 9.03; that for “GGGTATACAAATAAACGTACAAACTCATAAAAAAAA [XGTACX_site3191]” was 9.43.
In the case of “CATATATAACAATTCTCACACATAAAAAAAAAAAAT [CACACA_site4564]” it was 9.53; in that of “AGTGGAATGTATGATTTTCATTCCTTAAAATTTTAA [GTGCAC_negctrl_site521]”, 8.94.
As for “AATACTAAAAAGTGTACACATACATAAAAAATTGCA [CACACA_site5620]”, the “gcPBM binding intensity (ln)” value stood at 9.51.
The value for “AAGAAAAAAGTTATTAGTACACATTATAATAAAAAG [XGTACX_site3527]” was 9.43; that for “TATTGATTTATAAACACACACTCGAAGATGTTTAAC [CACACA_site4760]” was 9.34.
For the sequence “TAATTTTCTTTTTATCGTTTTTTTTTTTTTTTTTTT [XGTACX_negctrl_site432]”, the “gcPBM binding intensity (ln)” value came to 9.02.
Take “TATATATATGTAAATCGTACAAATTATATATATCAT [XGTACX_site2821]”: the “gcPBM binding intensity (ln)” value is 9.26.
In the case of “TATATCTCATAGTATACACACACACCCACCCACATA [CACACA_site8513]” it was 10.3.
Regarding “CATTATGTTGTAAATACACACATACATATACATACA [CACACA_site8143]”, the “gcPBM binding intensity (ln)” value is 9.49.
For the sequence “ATAAATATGTAAAAAACATGCAAAAAATTAAAGACA [TGCATGCA_site912]”, the “gcPBM binding intensity (ln)” value is 9.58.
For the sequence “AACGCACATATATTTATGTATATATATATATATATA [GTGCAC_negctrl_site478]”, the “gcPBM binding intensity (ln)” value worked out at 9.3.
In the case of “GGAAACAAAAAATATATACACACTAAACATAAAAAA [CACACA_site20]”, the “gcPBM binding intensity (ln)” value turned out to be 9.85.
The value for “TCATAGTAGAAACACACACACACACCCATATATATA [CACACA_site1737]” was 10.2.
With “TTATTACATAACAATATACACACTATTGATTAAAGA [CACACA_site2933]”, the “gcPBM binding intensity (ln)” value was found to be 9.39.
Consider “TAAAAAAAAAGAAGCTGTACTAAAAAATTTATATTA [XGTACX_site7408]”, for which the “gcPBM binding intensity (ln)” value was 8.9.
Consider “GTTATTAAACAGAAAAGTACATATGTATATTAAAAT [XGTACX_site3724]”, for which the “gcPBM binding intensity (ln)” value worked out at 9.42.
In the case of “TTATTAAATAAAATCATGCACACAATATATATTTTA [CACACA_site2496]” it was 9.2; in that of “AAATTCATAAAAATATTTTATAATTATATATAGAAT [TGCATGCA_negctrl_site343]”, 9.06.
In the case of “GGGTTTTTTATTAATACATGCATGGAAACGCACTAT [TGCATGCA_site1000]” it was 9.35; in that of “AAGAAAAACAATGAGATAAAGAAGAGAAAATATGTC [TGCATGCA_negctrl_site415]”, 9.91.
In the case of “ATATATATATAATTTGTACACACAAATATGCATATA [CACACA_site9136]”, the “gcPBM binding intensity (ln)” value worked out at 9.45.
With “ATTGAATTCCAACTGGTGCACCAGTAAGATTGAAAA [GTGCAC_site9895]”, the “gcPBM binding intensity (ln)” value was 9.03.
The value for “TAAAAAATAAATATATGTACATATTTATTTTTTTTT [XGTACX_site850]” was 9.01.
